Source: the supplement of paper PMC8728848
The list shows a part of the results.

Tests used:
Test in all cases: glycan array binding signal (z-score within array); higher = stronger binding
Conditions in all cases: glycan notation: IUPAC condensed, linker removed
Fuc(a1-2)Gal = molecular target: Fuc(a1-2)Gal
Outline: (§1)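 Glycan array binding is given as a within-array Z-score, which can be read as non-binding when negative. The arrays, 3228 of them, came from the Consortium for Functional Glycomics database and were retained only where the protein sequence was available. Z-scores were averaged across arrays of the same protein sequence at different concentrations or buffers and across linkers.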

Fuc(a1-2)Gal(b1-3)GalNAc = molecular target: Fuc(a1-2)Gal(b1-3)GalNAc
Outline: as §1

[1] = molecular target: Fuc(a1-2)Gal(b1-3)GalNAc(a1-3)[Fuc(a1-2)]Gal(b1-4)Glc
Outline: as §1

[2] = molecular target: Fuc(a1-2)Gal(b1-3)GalNAc(a1-3)[Fuc(a1-2)]Gal(b1-4)GlcNAc
Outline: as §1

[3] = molecular target: Fuc(a1-2)Gal(b1-3)GalNAc(b1-3)Gal
Outline: as §1

[4] = molecular target: Fuc(a1-2)Gal(b1-3)GalNAc(b1-3)Gal(a1-4)Gal(b1-4)Glc
Outline: as §1

[5] = molecular target: Fuc(a1-2)Gal(b1-3)GalNAc(b1-4)[Neu5Ac(a2-3)]Gal(b1-4)Glc
Outline: as §1

Fuc(a1-2)Gal(b1-3)GlcNAc = molecular target: Fuc(a1-2)Gal(b1-3)GlcNAc
Outline: as §1

[6] = molecular target: Fuc(a1-2)Gal(b1-3)GlcNAc(b1-2)Man(a1-3)[Fuc(a1-2)Gal(b1-3)GlcNAc(b1-2)Man(a1-6)]Man(b1-4)GlcNAc(b1-4)GlcNAc
Outline: as §1

[7] = molecular target: Fuc(a1-2)Gal(b1-3)GlcNAc(b1-2)Man(a1-3)[Fuc(a1-2)Gal(b1-3)GlcNAc(b1-2)Man(a1-6)]Man(b1-4)GlcNAc(b1-4)[Fuc(a1-6)]GlcNAc
Outline: as §1

[8] = molecular target: Fuc(a1-2)Gal(b1-3)GlcNAc(b1-3)Gal(b1-4)Glc
Outline: as §1

[9] = molecular target: Fuc(a1-2)Gal(b1-3)GlcNAc(b1-3)GalNAc
Outline: as §1

[10] = molecular target: Fuc(a1-2)Gal(b1-3)GlcNAc(b1-3)[Fuc(a1-2)Gal(b1-3)GlcNAc(b1-6)]GalNAc
Outline: as §1

[11] = molecular target: Fuc(a1-2)Gal(b1-3)GlcNAc(b1-3)[Gal(b1-4)GlcNAc(b1-6)]Gal(b1-4)Glc
Outline: as §1

[12] = molecular target: Fuc(a1-2)Gal(b1-3)GlcNAc(b1-3)[Neu5Ac(a2-6)Gal(b1-4)GlcNAc(b1-6)]Gal(b1-4)Glc
Outline: as §1

[13] = molecular target: Fuc(a1-2)Gal(b1-3)GlcNAc6S
Outline: as §1

[14] = molecular target: Fuc(a1-2)Gal(b1-3)[Fuc(a1-4)]GlcNAc
Outline: as §1

[15] = molecular target: Fuc(a1-2)Gal(b1-3)[Fuc(a1-4)]GlcNAc(b1-2)Man(a1-3)[Fuc(a1-2)Gal(b1-3)[Fuc(a1-4)]GlcNAc(b1-2)Man(a1-3)]Man(b1-4)GlcNAc(b1-4)GlcNAc
Outline: as §1

[16] = molecular target: Fuc(a1-2)Gal(b1-3)[Fuc(a1-4)]GlcNAc(b1-2)Man(a1-3)[Fuc(a1-2)Gal(b1-3)[Fuc(a1-4)]GlcNAc(b1-2)Man(a1-6)]Man(b1-4)GlcNAc(b1-4)[Fuc(a1-6)]GlcNAc(b1-4)[Fuc(a1-6)]GlcNAc
Outline: as §1

[17] = molecular target: Fuc(a1-2)Gal(b1-3)[Fuc(a1-4)]GlcNAc(b1-3)[Fuc(a1-3)[Gal(b1-4)]GlcNAc(b1-6)]Gal(b1-4)Glc
Outline: as §1

[18] = molecular target: Fuc(a1-2)Gal(b1-3)[Fuc(a1-4)]GlcNAc(b1-3)[Gal(b1-4)GlcNAc(b1-6)]Gal(b1-4)Glc
Outline: as §1

[19] = molecular target: Fuc(a1-2)Gal(b1-4)Fuc(a1-3)]GlcNAc(b1-2)Man(a1-3)[Fuc(a1-2)Gal(b1-4)[Fuc(a1-3)]GlcNAc(b1-2)Man(a1-6)]Man(b1-4)GlcNAc(b1-4)GlcNAc
Outline: as §1

Fuc(a1-2)Gal(b1-4)Glc = molecular target: Fuc(a1-2)Gal(b1-4)Glc
Outline: as §1

Fuc(a1-2)Gal(b1-4)Glc6S = molecular target: Fuc(a1-2)Gal(b1-4)Glc6S
Outline: as §1

Fuc(a1-2)Gal(b1-4)GlcNAc = molecular target: Fuc(a1-2)Gal(b1-4)GlcNAc
Outline: as §1

[20] = molecular target: Fuc(a1-2)Gal(b1-4)GlcNAc(b1-2)Man
Outline: as §1

[21] = molecular target: Fuc(a1-2)Gal(b1-4)GlcNAc(b1-2)Man(a1-3)[Fuc(a1-2)Gal(b1-4)GlcNAc(b1-2)Man(a1-6)]Man(b1-4)GlcNAc(b1-4)GlcNAc
Outline: as §1

[22] = molecular target: Fuc(a1-2)Gal(b1-4)GlcNAc(b1-2)Man(a1-3)[Fuc(a1-2)Gal(b1-4)GlcNAc(b1-2)Man(a1-6)]Man(b1-4)GlcNAc(b1-4)[Fuc(a1-6)]GlcNAc
Outline: as §1

[23] = molecular target: Fuc(a1-2)Gal(b1-4)GlcNAc(b1-2)[Fuc(a1-2)Gal(b1-4)GlcNAc(b1-4)]Man(a1-3)[Fuc(a1-2)Gal(b1-4)GlcNAc(b1-2)Man(a1-6)]Man(b1-4)GlcNAc(b1-4)GlcNAc
Outline: as §1

[24] = molecular target: Fuc(a1-2)Gal(b1-4)GlcNAc(b1-3)Gal(b1-4)GlcNAc
Outline: as §1

[25] = molecular target: Fuc(a1-2)Gal(b1-4)GlcNAc(b1-3)Gal(b1-4)GlcNAc(b1-2)Man(a1-3)[Fuc(a1-2)Gal(b1-4)GlcNAc(b1-3)Gal(b1-4)GlcNAc(b1-2)Man(a1-6)]Man(b1-4)GlcNAc(b1-4)GlcNAc
Outline: as §1

[26] = molecular target: Fuc(a1-2)Gal(b1-4)GlcNAc(b1-3)Gal(b1-4)GlcNAc(b1-3)Gal(b1-4)GlcNAc
Outline: as §1

[27] = molecular target: Fuc(a1-2)Gal(b1-4)GlcNAc(b1-3)GalNAc
Outline: as §1

[28] = molecular target: Fuc(a1-2)Gal(b1-4)GlcNAc(b1-3)[Fuc(a1-2)Gal(b1-4)GlcNAc(b1-6)]GalNAc
Outline: as §1

[29] = molecular target: Fuc(a1-2)Gal(b1-4)GlcNAc(b1-3)[Fuc(a1-3)[Gal(b1-4)]GlcNAc(b1-6)]Gal(b1-4)Glc
Outline: as §1

[30] = molecular target: Fuc(a1-2)Gal(b1-4)GlcNAc(b1-6)GalNAc
Outline: as §1

[31] = molecular target: Fuc(a1-2)Gal(b1-4)GlcNAc6S
Outline: as §1

B1: AFL5 (Aspergillus fumigatus), Q4WB00 (protein)
chain: MDNFMEMTKKLGHQPELLRLRALDATYDDALEGKLVVAPLDMSEPGKKILDSGTADGTWLRNVRSKQSVPHDYYGSDVEGELFPKDPDGITYFAHSFKDPWPQQYLGFFDLVHIRGSLAGSAPEGPAPVIQNLTTLLKPGGWVQLMEMNAFSPPPNGPAMTDFAKMASEMFTGIGVGDFANNNKSMLEDAGLKNVQEKRVIVNLGKKAKPELHDQSIHGVTGPIVPLTSVARTVKSSFTGEQLDALPARVKEELETEGGQVEMIIAFGQKA
- glycan array binding signal (z-score) (Fuc(a1-2)Gal): 0.294
- glycan array binding signal (z-score) (Fuc(a1-2)Gal(b1-3)GalNAc): -0.109
- glycan array binding signal (z-score) [1]: -0.099
- glycan array binding signal (z-score) [2]: 0.124
- glycan array binding signal (z-score) [3]: -0.27
- glycan array binding signal (z-score) [4]: -0.338
- glycan array binding signal (z-score) [5]: -0.127
- glycan array binding signal (z-score) (Fuc(a1-2)Gal(b1-3)GlcNAc): -0.181
- glycan array binding signal (z-score) [6]: 0.487
- glycan array binding signal (z-score) [7]: -0.008
- glycan array binding signal (z-score) [8]: -0.217
- glycan array binding signal (z-score) [9]: -0.31
- glycan array binding signal (z-score) [10]: -0.55
- glycan array binding signal (z-score) [11]: 0.163
- glycan array binding signal (z-score) [12]: -0.441
- glycan array binding signal (z-score) [13]: -0.232
- glycan array binding signal (z-score) [14]: -0.036
- glycan array binding signal (z-score) [15]: 0.527
- glycan array binding signal (z-score) [16]: -0.382
- glycan array binding signal (z-score) [17]: -0.34
- glycan array binding signal (z-score) [18]: -0.067
- glycan array binding signal (z-score) [19]: 0.109
- glycan array binding signal (z-score) (Fuc(a1-2)Gal(b1-4)Glc): -0.439
- glycan array binding signal (z-score) (Fuc(a1-2)Gal(b1-4)Glc6S): 0.122
- glycan array binding signal (z-score) (Fuc(a1-2)Gal(b1-4)GlcNAc): -0.379
- glycan array binding signal (z-score) [20]: 0.42
- glycan array binding signal (z-score) [21]: -0.083
- glycan array binding signal (z-score) [22]: 0.254
- glycan array binding signal (z-score) [23]: -0.16
- glycan array binding signal (z-score) [24]: -0.689
- glycan array binding signal (z-score) [25]: 0.907
- glycan array binding signal (z-score) [26]: 0.549
- glycan array binding signal (z-score) [27]: -0.06
- glycan array binding signal (z-score) [28]: -0.019
- glycan array binding signal (z-score) [29]: -0.495
- glycan array binding signal (z-score) [30]: -0.782
- glycan array binding signal (z-score) [31]: -0.467
